Self-cleavage data for 167 variants are collected here from the RNAGym collection of RNA variant scans (doi:10.1093/nar/gkz1192).

B1: CPEB3 Ribozyme (parent)
chain: UAACAGGGGGCCACAGCAGAAGCGUUCACGUCGCAGCCCCUGUCAGAUUCUGGUGAAUCUGCGAAUUCUGCUGUAUAUCUC

The source gives no read counts; variants with many changes may rest on few reads.

Variants of B1 are the subject of this series. The experiment in a line: self-cleavage, relative activity (ratio to wild type); higher = more cleavage; in vitro, sequencing. A digest of the protocol: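 Libraries of CPEB3 self-cleaving ribozyme mutants came from rounds of error-prone PCR and carried barcodes, which DNA sequencing matched to variants. In vitro transcription used T7 RNA polymerase at 37°C for 5 hours, with a further 15 min in DNase I before EDTA stopped the reaction; the ribozymes cleaved during both steps. The RNA was reverse transcribed with template switching and sequenced on Illumina. Relative activity is the cleaved/total read fraction of a variant divided by that of the unmutated ribozyme, averaged over three batches with at least 5 reads.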
As to A20U C23U U48C U54C, the self-cleavage worked out at 0.09.
With A20G U54A C62U, the self-cleavage came to 0.15.
For A20G U31A U41C A64U, the self-cleavage is 0.11.
As to A20U A47G U69A, the self-cleavage amounted to 0.12.
For A20G U26A A28G A35G U54C U76C the value was 0.64; for A20U C34A U41C A65G A75G, 0.11.
With A20U A47U A57G U69A, the self-cleavage came to 0.16.
Consider A20U A35U U41A, for which the self-cleavage was determined as 0.22.
For A20G U31C U41C U49C U72G the value was 0.23; for A20G U31C U76C, 0.7; for A20U C29A U31A, 0.19.
For A20G U25C A28G U31C U43C G63A the value was 0.3; for A20G U43A G53C A56G U60C G73C, 0.13; for A20G U26C U41A U51A U66C U78C, 0.08.
As for A20G U72A U80C, the self-cleavage was 1.23.
Regarding A20U C40A A57G, the self-cleavage worked out at 0.13.
For A20U A21U A47G A56G U66C, the self-cleavage was found to be 0.18.
For A20U C39A U72A U74C, the self-cleavage came to 0.27.
As for A20U G24A A28G U49C U51A, the self-cleavage was 0.08.
For A20G U26A A45G the value was 0.45; for A20G U51C U78A, 0.71.
Take A20U A28G U80C: the self-cleavage is 0.19.
Take A20U A45U U49C C62U: the self-cleavage came out at 0.14.
As for A20G U72C A77G, the self-cleavage was found to be 1.19.
For A20U A28U U41C A45G A56G A65G the value was 0.28; for A20U A45G A56U A64G, 0.05.
Take A20G U31C U49C U67A U69G U78A: the self-cleavage was found to be 0.08.
In the case of A20U C39G A47G A65U, the self-cleavage was 0.07.
For A20U A65C U74C the value was 0.15; for A20G U49A C50A U51A C59A, 0.1; for A20U C29U U31C, 0.17.
In the case of A20U A35G U60C, the self-cleavage was 0.22.
For A20G U41C U48A U66C U78C U80C the value was 0.15; for A20U A28C U67A U76A, 0.54.
For A20U U25C U78C the value was 0.17; for A20G U25C U41A U49C, 0.25.
Consider A20U G24A U48A C71G, for which the self-cleavage worked out at 0.09.
For A20G U58C U66C U67C the value was 0.03; for A20G U49C U66A, 0.19; for A20G U43C U72A, 0.15.
Regarding A20G U25C G33A A57G U58C, the self-cleavage stood at 0.17.
Regarding A20G U49C A56G U60C A75U, the self-cleavage came to 0.23.
For A20G U26A A57C the value was 0.35.
On to A20G U58A A64U, for which the self-cleavage is 0.14.
A20U C37U A45G U51A U54A U69G: the self-cleavage was 0.07.
As for A20U A35C U41A U54C U78C, the self-cleavage was found to be 0.08.
A20G U26C C29U A35C U54C U78C: the self-cleavage amounted to 0.03.
On to A20U U26C A28G U58C A64G A75G, for which the self-cleavage turned out to be 0.03.
Regarding A20U A47G U49C A56U G70C, the self-cleavage amounted to 0.22.
Take A20U U25A U26C C37U U41C: the self-cleavage stood at 0.16.
In the case of A20G U25C U48A U80A, the self-cleavage turned out to be 0.05.
For A20G U48G A56C U67G the value was 0.09; for A20U A65G U69C U76C, 0.14.
Regarding A20G U31C A65U U67G U80C, the self-cleavage turned out to be 0.2.
Regarding A20U C29U U66A, the self-cleavage was 0.17.
Turning to A20U C40A G63A U72A, the self-cleavage worked out at 0.
With A20G U51G U58C U67C, the self-cleavage worked out at 0.19.
Turning to A20G U31C U54C U60A, the self-cleavage stood at 0.15.
Consider A20G U31A U51A U58A, for which the self-cleavage is 0.1.
Regarding A20U C23U U26C U60C, the self-cleavage was 0.18.
In the case of A20G U25C A28C C29U U43A U69A U80C, the self-cleavage was determined as 0.04.
Regarding A20U A21G U41C G55A U80A, the self-cleavage stood at 0.09.
As for A20G U58G U80C, the self-cleavage was 0.48.
For A20G U72C U76C U78C the value was 0.93.
For A20U C34U U51A U69C, the self-cleavage was determined as 0.05.
With A20G U25C A28U U31A A57G, the self-cleavage was found to be 0.12.
For A20G U25C U26C the value was 0.42; for A20G U31C U41C U51A U67C U72C, 0.41.
For A20U C38A C62U U80A the value was 0.17; for A20U G22A U25C U72A, 0.08.
As to A20G U51A U69A, the self-cleavage came out at 0.43.
For A20U U26C A28G U51C U69C U72C, the self-cleavage stood at 0.08.
In the case of A20G U26C U51A A57G U66C, the self-cleavage was determined as 0.23.
Turning to A20U A35G U41A, the self-cleavage came out at 0.15.
As to A20G U31C U78C, the self-cleavage came to 0.5.
With A20G U43A A65G G70A, the self-cleavage came to 0.16.
For A20U A35G U72A A77G, the self-cleavage is 0.22.
Consider A20G U41A U67C, for which the self-cleavage stood at 0.24.
As for A20U A35G A64G U72A, the self-cleavage came out at 0.47.
A20G U25C U31C U60C: the self-cleavage was 0.21.
For A20U A21G U31C U58C A64U U72C U80A the value was 0.03; for A20U A21G U26A U51A U78A, 0.08; for A20U C62U C68U C81A, 0.07.
As to A20G U31C U41A U43C U48A U54A A56G, the self-cleavage was found to be 0.12.
For A20G U49G U54C A64U U72C the value was 0.07; for A20G U31A A45G A77U, 0.11; for A20G U48G G55A A57C U67C, 1.05.
For A20G U41C U58C U66A the value was 0.46.
For A20G U54C A56U A75U the value was 0.2.
A20G U48C U49C U76C: the self-cleavage is 0.26.
Regarding A20G U31C U54C U58C U69C, the self-cleavage stood at 0.31.
For A20G U54C U66C the value was 0.3; for A20U A47G U72G, 0.12.
A20G U41A U51G U66C: the self-cleavage turned out to be 0.06.
A20U A28G U31G A47U U58C U78C: the self-cleavage was determined as 0.03.
Regarding A20G U25A A28U G33A A35C U80G, the self-cleavage is 0.06.
With A20U U26A C39U U41C C44U A56G, the self-cleavage was determined as 0.09.
For A20U C40G U80C the value was 0.14; for A20U A28G A45U A64U U78C, 0.1.
With A20U A28U G36A U72A U74A, the self-cleavage worked out at 0.04.
As to A20G U49C A64U U67C C79A, the self-cleavage turned out to be 0.07.
In the case of A20U A47G U51C A57G U60C U72C, the self-cleavage was 0.22.
For A20G U25C C59U A64G, the self-cleavage stood at 0.32.
For A20U A45G U66A the value was 0.22; for A20G U26C C39G U41C U51A U78C, 0.27; for A20G U66C G73A U76A A77G, 0.68.
With A20G U25C G30A U48C, the self-cleavage is 0.19.
For A20G U48C U72A the value was 0.27; for A20G U25G U66C, 0.25; for A20U G24A A35G A47G C79A, 0.24.
Regarding A20G U51A A57G U60A, the self-cleavage stood at 0.34.
On to A20G U48A U72C, for which the self-cleavage was found to be 0.37.
Regarding A20U A56G C62A U69C, the self-cleavage came to 0.13.
Turning to A20U A56G A65G, the self-cleavage is 0.11.
For A20G U25A U48C U58C, the self-cleavage worked out at 0.16.
For A20G U58A U78C the value was 0.19.
For A20G U43C U49A U51G U58G U80C, the self-cleavage was determined as 0.02.
With A20U G33A U58C U67C, the self-cleavage is 0.09.
On to A20G U41C G55A, for which the self-cleavage stood at 0.77.
A20U A35U C40U A45G U60C A77C: the self-cleavage stood at 0.13.
For the variant A20G U31C U54C U67C A77U, the self-cleavage was found to be 0.92.
A20G U41C U78C: the self-cleavage turned out to be 0.88.
Consider A20G U25C A57G, for which the self-cleavage was 0.1.
For A20G U43A G53C U60C G73C the value was 0.71; for A20G U41C A47G, 0.85; for A20G U41C C50U U78A, 1.15.
For the variant A20G U41C C50U U58C A75G, the self-cleavage stood at 0.12.
With A20G U25C A28G A77U, the self-cleavage was 0.03.
Regarding A20G U69A U80A, the self-cleavage was determined as 0.55.
For A20U A28U A45U U48C U80G the value was 0.04; for A20U A28G G30A C40A U43A U58A, 0.04.
Turning to A20U U26C A35G C37U U43C, the self-cleavage worked out at 0.63.
In the case of A20G U41C A45G U49C U58G U78A, the self-cleavage turned out to be 0.04.
Take A20G U26C G46A A56G G70A U76C: the self-cleavage came out at 0.06.
Regarding A20U A21G A64U, the self-cleavage is 0.12.
For A20G U26C C39U U41A A64C U66C U78C, the self-cleavage came out at 0.03.
For A20G U48C U80A the value was 0.41; for A20U U25A A28G U41A U69A, 0.05; for A20U G22U U78C, 0.13.
Regarding A20G U25C G33C A35U U41A A47G, the self-cleavage was determined as 0.13.
Consider A20G U41C A45G A64G U67C, for which the self-cleavage was 0.43.
With A20U A21G A75U U78C, the self-cleavage came to 0.09.
On to A20G U43C U54C, for which the self-cleavage was 0.19.
With A20U C38U A45G U76C, the self-cleavage was 0.24.
For A20G U43A U66C U72C U78A, the self-cleavage turned out to be 0.32.
As to A20G U31C U49A, the self-cleavage is 0.16.
Take A20G U48C U51C A65G: the self-cleavage came to 0.24.
As to A20U A45G A56G A64G, the self-cleavage stood at 0.23.
As for A20G U25G U31A, the self-cleavage was determined as 0.34.
For A20G U26C C39G U51A U78C the value was 0.18.
For A20U U26C A28U C37U U43C U69C the value was 0.07; for A20U A47U A56G G63U U67C U74C, 0.07.
For A20G U26C U54G U67C C71A C79G the value was 0.07; for A20G U25C A64G U72C U74C, 0.43.
A20G U66C U69A: the self-cleavage worked out at 0.19.
Consider A20U G30C U43C U72G, for which the self-cleavage was 0.24.
For A20G U43C U67A U69A the value was 0.17; for A20G U25A C40U A45G A57U, 0.06; for A20G U25G U66C U78A, 0.11.
With A20G U49C U51C U74G, the self-cleavage is 0.2.
A20G U49C A64G U69A: the self-cleavage stood at 0.18.
Consider A20G U49A A56G A64G A75U, for which the self-cleavage was 0.25.
Consider A20G U69C U78A, for which the self-cleavage amounted to 0.59.
For A20U A28G U48C U60C the value was 0.25; for A20G U31C U54A A56U U60A U67C U78C, 0.04; for A20G U41C A47G U66A, 0.42.
As for A20G U76C U80C, the self-cleavage was found to be 1.12.
